# About 14,000 (4.5%) of roughly 310,000 compounds showed an effect of 50% or more. Effects have a minus sign here. The list shows a part of the results.
# Target: human ether-à-go-go-related gene (hERG) potassium channel (human, UniProt Q12809)
# Assay: primary screen, population patch clamp on CHO cells stably expressing hERG
# 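Also: peak tail current of the secondary pulse compared with the same well before compound.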
# Sequence of human ether-à-go-go-related gene (hERG) potassium channel (Q12809 whole entry, looked up): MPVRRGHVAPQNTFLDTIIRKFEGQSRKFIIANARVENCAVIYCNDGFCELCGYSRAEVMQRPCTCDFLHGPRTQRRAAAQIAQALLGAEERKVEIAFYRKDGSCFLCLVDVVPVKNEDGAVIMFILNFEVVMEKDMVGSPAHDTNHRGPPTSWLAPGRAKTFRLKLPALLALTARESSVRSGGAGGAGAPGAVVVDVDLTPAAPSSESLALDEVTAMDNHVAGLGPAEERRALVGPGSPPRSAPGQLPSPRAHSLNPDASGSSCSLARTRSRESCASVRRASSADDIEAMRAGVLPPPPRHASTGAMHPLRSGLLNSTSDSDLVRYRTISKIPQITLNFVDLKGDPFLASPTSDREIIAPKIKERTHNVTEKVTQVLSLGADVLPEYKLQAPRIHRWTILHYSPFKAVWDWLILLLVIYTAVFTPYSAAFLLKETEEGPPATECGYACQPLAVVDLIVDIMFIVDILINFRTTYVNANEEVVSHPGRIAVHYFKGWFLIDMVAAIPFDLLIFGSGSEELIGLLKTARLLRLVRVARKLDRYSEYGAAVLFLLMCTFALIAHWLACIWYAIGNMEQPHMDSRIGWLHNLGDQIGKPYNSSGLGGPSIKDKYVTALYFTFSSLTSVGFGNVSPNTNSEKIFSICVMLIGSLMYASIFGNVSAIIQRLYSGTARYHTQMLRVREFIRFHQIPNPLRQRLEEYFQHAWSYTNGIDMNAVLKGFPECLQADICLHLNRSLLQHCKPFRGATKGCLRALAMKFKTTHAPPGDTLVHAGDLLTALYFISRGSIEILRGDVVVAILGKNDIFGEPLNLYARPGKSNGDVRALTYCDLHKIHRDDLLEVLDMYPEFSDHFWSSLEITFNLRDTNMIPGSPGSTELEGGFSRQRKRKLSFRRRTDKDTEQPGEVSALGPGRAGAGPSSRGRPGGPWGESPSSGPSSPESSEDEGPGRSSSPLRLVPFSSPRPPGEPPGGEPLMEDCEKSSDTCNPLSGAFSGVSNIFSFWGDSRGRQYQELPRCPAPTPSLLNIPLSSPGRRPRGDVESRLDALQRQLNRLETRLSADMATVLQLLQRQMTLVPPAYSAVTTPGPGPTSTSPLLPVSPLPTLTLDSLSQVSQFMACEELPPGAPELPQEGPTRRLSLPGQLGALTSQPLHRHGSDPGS
row,Compound,"hERG current change (%, negative = inhibition) at 10uM [%]"
1,Cc1cccc(C)c1Nc1nnc(SCC(=O)c2ccc(Br)s2)s1,6.62
2,COC(=O)CC1c2cc(OC)c(OC)cc2CC(=O)c2cc(OC)c(OC)cc21 (stereo not drawn),6.73
3,CCCC(C)NC(=O)COC(=O)c1cccc(NS(C)(=O)=O)c1 (stereo not drawn),-0.372
4,Nc1nonc1-n1nnc(C(=O)O)c1-c1cccs1,14.3
5,CC1CC(=S)Nc2ccccc2S1 (stereo not drawn),11.1
6,Cn1cc(C(=O)Nc2cccc(F)c2)cn1,15.3
7,COc1cc(C(=S)N2CCOCC2)cc(OC)c1OC(=O)Cc1ccccc1,3
8,Cc1ccc(-c2cc(N)n(Cc3ccc(Cl)cc3)n2)cc1,-13.6
9,Cc1cc(C)nc(N/N=C/c2ccccc2OCc2cccc(Br)c2)n1,-6.27
10,CN(C(=O)c1cc(S(=O)(=O)N2CCc3ccccc32)cn1C)C1CCCCC1,-26.3
11,CC(C)NC(=O)c1cc(-c2ccco2)on1,2.16
12,Cc1ccc(-c2cc(C(=O)NCCCn3ccnc3)no2)cc1,-42.9
13,CC(NC(=O)CCc1nnc(CCCc2ccccc2)o1)c1ccccc1 (stereo not drawn),-0.0441
14,O=C(CSc1nnc(-c2cccs2)n1CC1CCCO1)N1CCCC1 (stereo not drawn),-14.4
15,Cc1sc2ncnc(SCC(=O)c3cccs3)c2c1C,-11.8
16,CN1C(=O)Cc2cc(S(=O)(=O)Nc3ccc(N4CCOCC4)cc3)ccc21,5.48
17,O=C(COC(=O)CCc1ccccc1)NC(c1ccccc1)c1ccccc1,3.65
18,Cc1cc(C)c(NC(=O)C2CCC(=O)N2)c(C)c1 (stereo not drawn),16.2
19,Cc1noc(C)c1CSc1ccccc1C(=O)Nc1nccs1,1.74
20,CCCCCn1c(=O)c(C(=O)NCc2ccccc2Cl)c(O)c2ccccc21,18.9
21,COCCOC(=O)c1c(N)n(CCCN2CCOCC2)c2nc3ccccc3nc12,-53.3
22,CCCN1CCc2c(sc(NC(=O)CCS(=O)(=O)c3ccccc3)c2C(N)=O)C1.Cl,-27.3
23,Cc1ccc2c(c1)C(c1ccc(N3CCOCC3)cc1)=NNC(c1cccs1)=N2,1.66

row,Compound,"hERG current change (%, negative = inhibition) at 10uM [%]"
1,Cc1ccc(NC(=O)CC2S/C(=N/c3nccs3)N(C)C2=O)cc1C (stereo not drawn),-0.441
2,CCCc1ccc(-c2c(C)sc(N)c2C#N)cc1,16.3
3,CC(C)C(=O)NC(Nc1ccccc1F)C(Cl)(Cl)Cl (stereo not drawn),3.48
4,Cc1ccc(NC(=S)NCc2ccc(S(N)(=O)=O)cc2)c(C)c1,8.36
5,CN(C)CC/C=C1\c2ccccc2Sc2cc(F)c(Cl)cc21.Cl,7.2
6,CCc1nnc(NC(=O)CSc2ccc(Cl)cc2)s1,-3.04
7,COc1ccc(-c2noc(-c3ccc(Br)o3)n2)cc1OC,2.67
8,Cc1ccc(S(=O)(=O)Nc2ccc(C(=O)N3CCCC3)cc2)c(C)c1NS(C)(=O)=O,14.5
9,COCCCNC(=O)CN(c1ccc(F)cc1)S(=O)(=O)c1ccc2c(c1)OCCO2,-15
10,COc1cccc(-n2c(C)nc3c(cnn3-c3ccc(C)cc3)c2=O)c1,2.38
11,CCC1Cc2c(nc(N)c3c(N)nc(N4CCOCC4)c(C#N)c23)O1 (stereo not drawn),18
12,Cc1cc(OCC(=O)NCc2cccnc2)c2c(C)c(C)c(=O)oc2c1,-19.4
13,Cc1ccc(CC2C(=O)N(c3nc(C)cc(C)n3)C(=O)C2C)cc1 (stereo not drawn),2.42
14,CCOC(=O)c1ccc(Cl)c(NC(=O)c2cccnc2)c1,-2.41
15,Nc1c(C(=O)NCc2ccc(Cl)cc2)sc2nc3c(c(C(F)(F)F)c12)CCC3,-15.7
16,CC(Sc1nc(N2CCOCC2)nc(N2CCOCC2)n1)C(=O)Nc1ccccc1 (stereo not drawn),14.3
17,COc1ccc(CCNC(C)C(=O)Nc2ccc(S(N)(=O)=O)cc2)cc1 (stereo not drawn),-9.23
18,CCOC(=O)c1c(/N=C/c2ccc(O)cc2O)sc2c1CCC2,15.7
19,O=C(COC(=O)c1cccc2c1C(=O)c1ccccc1C2=O)NC1CCCCC1,-39.2
20,Cc1ccc(NC(=O)CSc2nnc(-c3ccco3)n2N)cc1F,12.4
21,Clc1ccc(-c2nnnn2-c2ccc(Cl)c(Cl)c2)cc1Cl,5.62
22,COc1cccc(NC(=O)CN(C)C(=O)c2ccc(-c3ccccc3Cl)o2)c1,-30.2
